Data as given in PubChem BioAssay (NCATS).
Some of the results follow. Shown are side measurements of this screen, not its main read-out; they come without a call. Potencies come from curve fits of mixed quality, noted in brackets.

Assay: qHTS drug screen for cell cycle checkpoint inhibitors in PARPi-resistant BRCA-mutant ovarian cancer cell lines. (AID 1963452)
Settings: PEO1/OlaR viability, CellTiter-Glo luminescence, 96 h; measured here: PEO1 parental viability
In short: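 PEO1, PEO4 and PEO1/OlaR ovarian cancer cells, 600 per well, exposed 96 h at 37C to a dilution series. Viability read by CellTiter-Glo luminescence, normalized to DMSO and empty wells; activity summarized as Z-AUC.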
Tags give direction and shape of the fitted curve.

SMILES | AC50
O=C(c1ccc(F)c(F)c1Nc1ccc(I)cc1F)N1CC(O)([C@@H]2CCCCN2)C1 | 2.45 µM [falling, partial curve]
CN1CCN(c2ccc(Nc3ncc4cc(C#N)c(=O)n(C5CCCC5)c4n3)cc2)CC1 | 7.76 µM [falling, partial curve, poor fit]
Cc1cc(O)c(-c2ccc([C@@H](C)CN)cc2)c2c1[nH]c(=O)c1sccc12 | 0.0436 µM [falling, full curve]
COc1ncc(-c2ccc3c(Nc4cc(Oc5cc(F)cc(F)c5)cc(C(=O)O)c4)c(S(=O)(=O)NC4CC4)cnc3c2)c(OC)n1 | 2.75 µM [rising, partial curve, poor fit]
COCc1c(-c2ccc(NC(=O)Nc3cc(C(F)(F)F)ccc3F)c(F)c2)c2c(N)ncnn2c1CN1CCOCC1 | 12.3 µM [falling, partial curve, poor fit]
COC(=O)[C@H]1[C@@H](O)[C@@]2(O)c3c(OC)cc(O[C@@H]4O[C@@H]([C@@H](O)CO)CO[C@H]4OC)cc3O[C@@]2(c2ccc(OC)cc2)[C@@H]1c1ccccc1 | 17.4 µM [falling, single point]
COCCOC(=O)N1CCN(S(=O)(=O)c2cc(F)c(Oc3ccc(Cl)cc3)c(F)c2)C(C(=O)NO)C1 (configuration not stated) | 17.4 µM [falling, partial curve]
CCCCCCOC(=O)NC(=N)c1ccc(NCc2nc3cc(C(=O)N(CCC(=O)OCC)c4ccccn4)ccc3n2C)cc1 | 15.5 µM [falling, partial curve, poor fit]
O=C(Nc1ccc(OC(F)(F)Cl)cc1)c1cnc(N2CC[C@@H](O)C2)c(-c2ccn[nH]2)c1 | 4.9 µM [falling, partial curve]
CCCCCCCOc1ccc(CCC(N)(CO)CO)cc1C(F)(F)F | 19.5 µM [falling, single point]
CN1CCCN(C(=O)c2cccc(-c3ccc(/C=C4/C(=O)Nc5ccc(Cl)cc54)o3)c2)CC1 | 1.74 µM [falling, partial curve]
C=CC(=O)N1CC[C@@H](Oc2nc(Nc3ccc(N4CCC(N5CCN(C)CC5)CC4)cc3)c(C(N)=O)nc2CC)C1 | 3.01 µM [falling, partial curve]
CC(C)c1c(C(=O)Nc2ccccc2)c(-c2ccccc2)c(-c2ccc(F)cc2)n1CC[C@@H](O)C[C@@H](O)CC(=O)O | 13.4 µM [falling, single point]
c1ccc(-c2ccc(CNc3nc(-c4ccccn4)nnc3-c3ccccc3)cc2)cc1 | 0.616 µM [falling, full curve]
CCCOc1ccc(CCc2nc3cc(-c4c(C)noc4C)ccc3n2CCN2CCOCC2)cc1 | 21.9 µM [falling, single point]
Cc1ncsc1-c1ccc([C@H](C)NC(=O)[C@@H]2C[C@@H](O)CN2C(=O)[C@@H](NC(=O)COCCCOCCNC(=O)C[C@@H]2N=C(c3ccc(Cl)cc3)c3c(sc(C)c3C)-n3c(C)nnc32)C(C)(C)C)cc1 | 0.0871 µM [falling, full curve]
CCN1CCN(Cc2ccc(NC(=O)c3ccc(C)c(/C=C/c4cnc5[nH]ccc5c4OC)c3)cc2C(F)(F)F)CC1 | 6.16 µM [falling, partial curve]
CCCn1c(=O)c2[nH]c(-c3cnn(Cc4cccc(C(F)(F)F)c4)c3)nc2n(CC)c1=O | 2.45 µM [rising, partial curve, poor fit]
FC(F)(F)c1ccc(Nc2nc(-c3c(C(F)(F)F)nc4ccccn34)cs2)cc1 | 0.0219 µM [falling, full curve]
Cc1ccc(C(=O)Nc2ccc(CN3CCN(C)CC3)c(C(F)(F)F)c2)cc1C#Cc1cnc2[nH]ncc2c1 | 4.9 µM [falling, full curve]
C=C1C(=O)O[C@H]2[C@H]1CC/C(C)=C/CC[C@@]1(C)O[C@@H]21 | 17.4 µM [falling, single point]

Same assay, conditions: PEO1/OlaR viability, CellTiter-Glo luminescence, 96 h; measured here: PEO4 viability

SMILES | AC50
O=C(c1c(F)ccc(NS(=O)(=O)N2CC[C@@H](F)C2)c1F)c1c[nH]c2ncc(-c3cnc(C4CC4)nc3)cc12 | 17.4 µM [falling, single point]
CS(=O)(=O)c1ccc(-c2cnc(N)c(C(=O)Nc3ccccc3)n2)cc1 | 3.89 µM [falling, full curve]
c1ccc2c(-c3cnn4cc(-c5ccc(OCCN6CCOCC6)cc5)cnc34)ccnc2c1 | 8.48 µM [falling, partial curve]
Cc1nc(-c2cn3c(n2)-c2ccc(-c4cnn(C(C)(C)C(N)=O)c4)cc2OCC3)n(C(C)C)n1 | 15.5 µM [falling, partial curve]
CC(C)(O)CS(=O)(=O)Nc1ccc2c(c1)CCN(C(=O)COc1cccnc1)C2 | 0.0155 µM [falling, full curve]
N#Cc1ccnc(Nc2cc(C3CCN(C4COC4)CC3)cc(N3CCC(F)(F)C3)n2)c1 | 17.4 µM [falling, partial curve]
Cc1c(CN2CCC(Nc3ncnc4sc(CC(F)(F)F)cc34)CC2)ccc2c1cc(C#N)n2Cc1cn[nH]c1 | 4.36 µM [falling, partial curve]
Nc1nc2c(c(=O)[nH]1)N1CN(c3ccc(C(=O)N[C@@H](CCC(=O)O)C(=O)O)cc3)CC1CN2 (some centres not stated) | 6.16 µM [falling, partial curve]
CC[C@@H](C)Nc1cc(C(=O)NC2CC3CC[C@@H](C2)N3c2ccc(C(=O)C3CC3)cn2)c(C)cc1C(N)=O (some centres not stated) | 0.0549 µM [falling, full curve]
Cn1ncnc1[C@H]1c2n[nH]c(=O)c3cc(F)cc(c23)N[C@@H]1c1ccc(F)cc1 | 6.16 µM [falling, partial curve]
c1cc(Nc2cc(C3CC3)[nH]n2)nc(Nc2ccc3nc[nH]c3c2)n1 | 0.0692 µM [falling, full curve]
C=CC(=O)N1CCC(C2CCNc3c(C(N)=O)c(-c4ccc(Oc5ccccc5)cc4)nn32)CC1 (configuration not stated) | 9.77 µM [falling, partial curve, poor fit]
Cc1ccc(Sc2ccccc2N2CCNCC2)c(C)c1 | 24.5 µM [falling, single point]
CCCc1cc(C)[nH]c(=O)c1CNC(=O)c1cc(-c2ccnc(N3CCN(C)CC3)c2)cc2c1cnn2C(C)C | 15.5 µM [falling, single point]
COc1cccc(OCCCN)c1-c1cc(Nc2cnc(C#N)cn2)n[nH]1 | 0.0155 µM [falling, full curve]
COc1cc2c3c(n(CCCNCCO)c(=O)c2cc1OC)-c1cc2c(cc1C3=O)OCO2 | 0.0389 µM [falling, full curve]

SMILES | AC50
C[C@@H]1CCNC(=O)c2cc3ccc(C(=O)Nc4nc5ccccc5n4CCCN(C)C)cc3n21 | 27.5 µM [falling, single point]
Cn1ncc(Cl)c1-c1cc(C(=O)N[C@H](CN)Cc2ccc(F)c(F)c2)sc1Cl | 24.5 µM [falling, single point]
CCCc1cc(C)[nH]c(=O)c1CNC(=O)c1cc(-c2ccc(N3CCN(C(C)C)CC3)nc2)cc2c1cnn2C(C)C | 13.8 µM [falling, partial curve]
O=C(c1ccc(F)c(F)c1Nc1ccc(I)cc1F)N1CC(O)([C@@H]2CCCCN2)C1 | 3.09 µM [falling, partial curve]
CN1CCN(c2ccc(Nc3ncc4cc(C#N)c(=O)n(C5CCCC5)c4n3)cc2)CC1 | 12.3 µM [falling, partial curve, poor fit]
Cc1cc(O)c(-c2ccc([C@@H](C)CN)cc2)c2c1[nH]c(=O)c1sccc12 | 0.0436 µM [falling, full curve]
COc1ncc(-c2ccc3c(Nc4cc(Oc5cc(F)cc(F)c5)cc(C(=O)O)c4)c(S(=O)(=O)NC4CC4)cnc3c2)c(OC)n1 | 3.47 µM [rising, full curve, poor fit]
COCc1c(-c2ccc(NC(=O)Nc3cc(C(F)(F)F)ccc3F)c(F)c2)c2c(N)ncnn2c1CN1CCOCC1 | 6.92 µM [falling, partial curve, poor fit]
COC(=O)[C@H]1[C@@H](O)[C@@]2(O)c3c(OC)cc(O[C@@H]4O[C@@H]([C@@H](O)CO)CO[C@H]4OC)cc3O[C@@]2(c2ccc(OC)cc2)[C@@H]1c1ccccc1 | 12.3 µM [falling, partial curve, poor fit]
COCCOC(=O)N1CCN(S(=O)(=O)c2cc(F)c(Oc3ccc(Cl)cc3)c(F)c2)C(C(=O)NO)C1 (configuration not stated) | 21.9 µM [falling, single point]
CCCCCCOC(=O)NC(=N)c1ccc(NCc2nc3cc(C(=O)N(CCC(=O)OCC)c4ccccn4)ccc3n2C)cc1 | 12.3 µM [falling, partial curve, poor fit]
O=C(Nc1ccc(OC(F)(F)Cl)cc1)c1cnc(N2CC[C@@H](O)C2)c(-c2ccn[nH]2)c1 | 5.49 µM [falling, partial curve]
CCCCCCCOc1ccc(CCC(N)(CO)CO)cc1C(F)(F)F | 12.3 µM [falling, partial curve]
CN1CCCN(C(=O)c2cccc(-c3ccc(/C=C4/C(=O)Nc5ccc(Cl)cc54)o3)c2)CC1 | 0.123 µM [falling, full curve]
C=CC(=O)N1CC[C@@H](Oc2nc(Nc3ccc(N4CCC(N5CCN(C)CC5)CC4)cc3)c(C(N)=O)nc2CC)C1 | 3.01 µM [falling, partial curve]
